This is an account of results in the RNAGym collection of RNA variant scans (doi:10.7554/elife.90254).

Read counts are not given, so values of variants with three or more changes are uncertain.

B1: OR4K15 (parent)
chain: GUUAACGGUCAUAGGCCAUGGAAACUAGGAGCACCAUUUCGCUGCCAGUGAAGAAAUGAACAAAGAAAAUCUGGGCCAGGCAGGCAUCAAAAGAAAUAGUCUUGCGCUCAACCAGAAAGUCUGUAAUCAUUUUAAGGGUA

Variants of B1 are the subject of the series. Description: self-cleavage, relative activity (ratio to wild type); higher = more cleavage; in vitro, sequencing; the parent is a self-cleaving ribozyme.
Consider GUUAACGGUCAUAGGCCAUGGAAACUAGGAGCACCAUUUCGCUGCCAGUGAAGAAAUGAACAAAGAGAAUCUGGGCCAGGCAGGCAUCAGAAGAAAUAGUCUUGCGCUCAACCAGAAAGUCUGUAAUCAUCUUAAGGGUA, for which the self-cleavage came to 0.48.
Turning to GUUAACGGUCAUAGGCCAUGGAAACUAGGAGCACCAUUUCGCUGCCAGUGAAGAAAUGAACAAAGAGAAUCUGGGCCAGGCAGGCAUCAAAAGAAAUAGUCUUGCGCUCAACCAGAAAGUCUGUUAUCAUGUUAAGGGUA, the self-cleavage turned out to be 1.6.
As for GUUAACGGUCAUAGGCCAUGGAAACUAGGAGCACCAUUUCGCUGCCAGUGAAGAAAUGAACAAAGAGAAUCUGGGCCAGGCAAGCAUCAAAAGAAAUAGUCUUGCGCUCAACCAGAGAGGCUGUAAUCAUUUUAAGGGUA, the figure is 2.42; as for GUUAACGGUCAUAGGCCAUGGAAACUAGGAGCACCAUUUCGCUGCCAGUGAAGAAAUGAACAAAGAGAAUCUGGGCCAGGCAGGCAUCAAAAGAGAUAGUCUUGCGCUCAACCAGAAAGUCUAUAAUCAUUUUAAGGGUA, 1.68.
As for GUUAACGGUCAUAGGCCAUGGAAACUAGGAGCACCAUUUCGCUGCCAGUGAAGAAAUGAACAAAGAGAAUCUGGGCCAGGCAGGCAACAAAAGAAAUAGUCUUGCGCUCAACCAGAAAGUCUGUAGUCAUUUUAAGGGUA, the self-cleavage came to 1.75.
The result for GUUAACGGUCAUAGGCCAUGGAAACUAGGAGCACCAUUUCGCUGCCAGUGAAGAAAUGAACAAAGAGAAUCUGGGCCAGGCAGGCACCAAAAGAAAUAGUCCUGCGCUCAACCAGAAAGUCUGUAAUCAUUUUAAGGGUA reads 1.83.
The result for GUUAACGGUCAUAGGCCAUGGAAACUAGGAGCACCAUUUCGCUGCCAGUGAAGAAAUGAACAAAGAGAAUCUGGGCCAGGCAGGCAACAGAAGAAAUAGUCUUGCGCUCAACCAGAAAGUCUGUAAUCAUUUUAAGGGUA reads 0.56; that for GUUAACGGUCAUAGGCCAUGGAAACUAGGAGCACCAUUUCGCUGCCAGUGAAGAAAUGAACAAAGAGAAUCCGGGCCAGGCAGGCAUCAAAAGAAAUAGUCUUGCGCUCAACCAGAAAGUCUGUAAUCAUUUUAGGGGUA, 0.45; that for GUUAACGGUCAUAGGCCAUGGAAACUAGGAGCACCAUUUCGCUGCCAGUGAAGAAAUGAACAAAGAGAAUCUGGGCCAGGCAGGCACCAAAAGUAAUAGUCUUGCGCUCAACCAGAGAGUCUGUAAUCUUUUUAAGGGUA, 0.93.
GUUAACGGUCAUAGGCCAUGGAAACUAGGAGCACCAUUUCGCUGCCAGUGAAGAAAUGAACAAAGAGAAUCUGGGCCAGGCAGGCAUCAAAAGUAAUAGUCUUGCGCUCAACCAGAAAGUCUGUAGUCAUUUUAAGGGUA: the self-cleavage worked out at 0.82.
Take GUUAACGGUCAUAGGCCAUGGAAACUAGGAGCACCAUUUCGCUGCCAGUGAAGAAAUGAACAAAGAGAAUCUGAGCCAGGCAGGCUUCAAAAGAAAUAGUCUUGCGCUCAACCAGAAGGUCUGUAAUCAUUUUAAGGGUA: the self-cleavage was determined as 0.07.
The result for GUUAACGGUCAUAGGCCAUGGAAACUAGGAGCACCAUUUCGCUGCCAGUGAAGAAAUGAACAAAGAGAAUCUGGGCCAGGCAGGCAUCAAAAGAAAUAGUCUUGCGCUAAACCAGAAAGUCAGUAAUCAUUUUAAGGGUA reads 0.18.
With GUUAACGGUCAUAGGCCAUGGAAACUAGGAGCACCAUUUCGCUGCCAGUGAAGAAAUGAACAAAGAGAAUCUGGGCCAGGCAGGCAACAAAAGAAAUAGUCUUGCGCUCAACCAGAAAGUCUGUAAUCGUUUUAAGGGUA, the self-cleavage stood at 0.97.
For GUUAACGGUCAUAGGCCAUGGAAACUAGGAGCACCAUUUCGCUGCCAGUGAAGAAAUGAACAAAGAGAAUCUGGGCCAGGCAGGCAUCAAAAGAAAUAGCCUCGCGCUCAACCAGAAAGUCUGUAAUCAUUUUAAGGGUA, the self-cleavage was 1.57.
On to GUUAACGGUCAUAGGCCAUGGAAACUAGGAGCACCAUUUCGCUGCCAGUGAAGAAAUGAACAAAGAGAAUCUGGGCCAGGCAGGCAUCAAAAGAAAUAGUCUUGCGCUCAACCAGAGAGUCUGUAAUCAUUUCAAGGGUA, for which the self-cleavage came out at 2.42.
Consider GUUAACGGUCAUAGGCCAUGGAAACUAGGAGCACCAUUUCGCUGCCAGUGAAGAAAUGAACAAAGAGAAUCUGGGCCAGGCAGGCAUCAAAAGGAAUAGUCUUGCGCUCAACCAGAAGGUCCGUAAUCAUUUUAAGGGUA, for which the self-cleavage is 0.71.
As for GUUAACGGUCAUAGGCCAUGGAAACUAGGAGCACCAUUUCGCUGCCAGUGAAGAAAUGAACAAAGAGAAUCUGGGCCAGGCAGGCAUCAAAAGAAAUAGUCUUGCGCUCAACCGGGUAGUCUGUAAUCAUUUUAAGGGUA, the figure is 0.07.
In the case of GUUAACGGUCAUAGGCCAUGGAAACUAGGAGCACCAUUUCGCUGCCAGUGAAGAAAUGAACAAAGAGAAUCUGGGCCAGGCAGGCAUCAAAAGAAAUAGUCUUGCGCUCGACCAGGAAGUCUGUAAUCAUUUUAAGGGUA, the self-cleavage came out at 0.04.
As for GUUAACGGUCAUAGGCCAUGGAAACUAGGAGCACCAUUUCGCUGCCAGUGAAGAAAUGAACAAAGAGAAUCUGGGCCAGGCAGGCAUCAAAAGAAGCAGUCUUGCGCUCAACCAGAAAGUCUGUAAUCAUUUUAAGGGUA, the self-cleavage was 0.16.
On to GUUAACGGUCAUAGGCCAUGGAAACUAGGAGCACCAUUUCGCUGCCAGUGAAGAAAUGAACAAAGAGAAUCUGGGCCAGGCAGGCAUCAAAAGAAAUAGUCUUGCGCUCAACCAGAGAGUCUGUAAUCACUUUAAGGGUA, for which the self-cleavage was determined as 1.4.
As to GUUAACGGUCAUAGGCCAUGGAAACUAGGAGCACCAUUUCGCUGCCAGUGAAGAAAUGAACAAAGAGAAUCUGGGCCAGGCAGGCAUCAAAAGAAAUAGUCUUGCGCUCAACCAGAGAGCCUGUAAUCAUUUUAAGGGUA, the self-cleavage was found to be 0.5.
For the variant GUUAACGGUCAUAGGCCAUGGAAACUAGGAGCACCAUUUCGCUGCCAGUGAAGAAAUGAACAAAGAGAACCUGGGCCAGGCAGGCAUCAAAAGAAAUAGUCUUGCGCUCAACCAGAACGUCUGUAAUCAUUUUAAGGGUA, the self-cleavage stood at 0.55.
Turning to GUUAACGGUCAUAGGCCAUGGAAACUAGGAGCACCAUUUCGCUGCCAGUGAAGAAAUGAACAAAGAGAAUCUGGGCCAGGCAGGCAUCAAGAGAAAUAGUCUUGCGCUCAACCAGAAAGCCUGUAAUCAUUUUAAGGGUA, the self-cleavage came to 0.48.
GUUAACGGUCAUAGGCCAUGGAAACUAGGAGCACCAUUUCGCUGCCAGUGAAGAAAUGAACAAAGAGAAUCUGGGCCAGGCAGGCACCAAAAGAAAUAGUCUUGCGCUCAGCCAGAAAGUCUGUAAUCAUUUUAAGGGUA: the self-cleavage was 0.02.
As to GUUAACGGUCAUAGGCCAUGGAAACUAGGAGCACCAUUUCGCUGCCAGUGAAGAAAUGAACAAAGAGAAUCUGGGCCAGGCAGGCAUCAAAAGAAAUAGUCUUGCGCUCAACCAGAGAGUCUGUAAUCGUUUUAAGGGCA, the self-cleavage came out at 1.21.
The result for GUUAACGGUCAUAGGCCAUGGAAACUAGGAGCACCAUUUCGCUGCCAGUGAAGAAAUGAACAAAGAGAAUCUGGGCCAGGCAGGCACCCAAAGAAAUAGUCUUGCGCUCAACCAGAAAGUCUGUAACCAUUUUAAGGGUA reads 0.22; that for GUUAACGGUCAUAGGCCAUGGAAACUAGGAGCACCAUUUCGCUGCCAGUGAAGAAAUGAACAAAGAGAAUCUGGGCCAGGCAGGCAUCAAGAGAAAUAGUCUUGCGCUCAACCAGAAAGUCCGUAAUCAUUUUAAGGGUA, 2.56.
As to GUUAACGGUCAUAGGCCAUGGAAACUAGGAGCACCAUUUCGCUGCCAGUGAAGAAAUGAACAAAGAGAAUCUGGGCCAAGCAGGCAUCAAAAGAAAUAGUCUUGCGCUCAACCGGAAAGUCUGUAAUCACUUUAAGGGUA, the self-cleavage amounted to 0.04.
The result for GUUAACGGUCAUAGGCCAUGGAAACUAGGAGCACCAUUUCGCUGCCAGUGAAGAAAUGAACAAAGAGAAUCUGGGCCAGGCAGGCAUCAAAAGAAAUAGUCUUGCGCUCAACCAGAGAGUCAGUAAUCAUUUUAAGGGUA reads 1.97.
In the case of GUUAACGGUCAUAGGCCAUGGAAACUAGGAGCACCAUUUCGCUGCCAGUGAAGAAAUGAACAAAGAGAAUCUGGGCCAGGCAGGCAUCAAAAGAAGUAGUCUUGCGCUCAACCAGAAAGUCUGUAAUCAUUCUAAGGGUA, the self-cleavage was 1.72.
As for GUUAACGGUCAUAGGCCAUGGAAACUAGGAGCACCAUUUCGCUGCCAGUGAAGAAAUGAACAAAGAGAAUCUGGGCCAGGCAGGCACCGAAAGAAAUAGUCUUGCGCUCAACCAGAAAGUCUGUAAUCAUUUUAAGGGUA, the figure is 1.7; as for GUUAACGGUCAUAGGCCAUGGAAACUAGGAGCACCAUUUCGCUGCCAGUGAAGAAAUGAACAAAGAGAAUCUGGGCCAGGCAGGCACCAAAAGAAAUAGUCUUGCGCUCAACCAGAAAGUCUGUAGUCACUCUAAGGGUA, 0.46; as for GUUAACGGUCAUAGGCCAUGGAAACUAGGAGCACCAUUUCGCUGCCAGUGAAGAAAUGAACAAAGAGAAUCUGGGCCAGGCAGGCAUCAAGAGAAAUAGUCUUGCGCUCAACCAGAAAGUCUGUAAUAAUUUUAAGGGUA, 0.42.
The result for GUUAACGGUCAUAGGCCAUGGAAACUAGGAGCACCAUUUCGCUGCCAGUGAAGAAAUGAACAAAGAGAAUCUGGGCCAGGCAGGCACCAAAAGAAAUAGUCUCGCGCUCAACCAGAAAGUCUGAAAUCAUUUUAAGGGUA reads 0.19; that for GUUAACGGUCAUAGGCCAUGGAAACUAGGAGCACCAUUUCGCUGCCAGUGAAGAAAUGAACAAAGAGAAUCUGGGCCAGGCAGGCACCAAAAGAAUUAGUCUUGCGCUCAACCAGAAAGUCUGUAUUCAUUUUAAGGGUA, 1.09.
Take GUUAACGGUCAUAGGCCAUGGAAACUAGGAGCACCAUUUCGCUGCCAGUGAAGAAAUGAACAAAGAGAAUCAGGGCCAGGCAUGCACCAAAAGAAAUAGUCUUGCGCUCAACCAGAAAGUCUGUAAUCAUUAUAAGGGUG: the self-cleavage was 0.13.
As for GUUAACGGUCAUAGGCCAUGGAAACUAGGAGCACCAUUUCGCUGCCAGUGAAGAAAUGAACAAAGAGAAUCUGGGCCAGGCAGGCAUCAAAAAAAAUAGUCUUGCGCUCAACCAGAAAGUCUGUAAUCAUUUUGAGGGUA, the figure is 2.09; as for GUUAACGGUCAUAGGCCAUGGAAACUAGGAGCACCAUUUCGCUGCCAGUGAAGAAAUGAACAAAGAGAAUCUGGGCCAGGCAGGCACCAGAAGAAAUAGUCUUGCGCUCAACCAGAAAGUCUGUAAUCAUUUUAAGGGUA, 0.32; as for GUUAACGGUCAUAGGCCAUGGAAACUAGGAGCACCAUUUCGCUGCCAGUGAAGAAAUGAACAAAGAGAAUCUGGGCCAGGCAGGCAUCAAAAGAAGUAGUCUUGCGCUCAACCAGAAAGUCCGUAAUCAUUUUAAGGGUA, 1.17.
GUUAACGGUCAUAGGCCAUGGAAACUAGGAGCACCAUUUCGCUGCCAGUGAAGAAAUGAACAAAGAGAAUCUGGUCCAGGCAGGCAUCAAAAGAAAUAGACUUGCGCUCAACCAGAAAGUCUGUAAUCAUUUUAAGGGUA: the self-cleavage was 0.04.
GUUAACGGUCAUAGGCCAUGGAAACUAGGAGCACCAUUUCGCUGCCAGUGAAGAAAUGAACAAAGAGAAUCUGGACCUGGCAGGCAUCAAAAGAAAUAGUCCUGCGCUCAACCAGAAAGUCUGUAAUCAUAUUAAGGGUA: the self-cleavage came out at 0.22.
